In the supplement of paper PMC7726561:
Whole data set: some 1,100 sequences, median “thermal melting temperature (Tm) of peptide-HLA complex” near 58, cut for the lowest 2% near 42. This is one part of the list.

molecular target: HLA-A*02:01; assay: thermal melting temperature (Tm) of peptide-HLA complex; higher = more thermostable pHLA complex; conditions: C1R-A*02:01
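Also: cell lysates heated 10 min at 37–73 °C, remaining pHLA pulled down with pan-class I antibody, peptides quantified by DIA-MS versus 37 °C, Tm where half the complex is lost.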

Sequence	thermal melting temperature
ALAAALAHI	61.1 °C
ALLDSAHLL	61.1 °C
QQLDSKFLEQV	54.3 °C
VLYENALKL	59.3 °C
NLLDDRGMTAL	52.3 °C
ALLKDSIVQL	40.9 °C
ILSKDGVLYV	59.8 °C
ALILEPSLYTV	56.2 °C
LLYDQPLQV	63.3 °C
NMYGKVVTV	58.1 °C
QLAPVFQRV	54.3 °C
GLAKLIADV	60.9 °C
RLLEYTPTA	61.1 °C
LLSDVRFVL	54.8 °C
RIADGLPVAV	41 °C
TLDEYTTRV	52.2 °C
AMNISVPQV	58.1 °C
ALWVSQPPEI	59.2 °C
VLYPASPHGV	62.3 °C

Sequence	thermal melting temperature
VLPVPPLSV	50.3 °C
LILDPIFKV	50.4 °C
VLYGGLLEHL	61.4 °C
FLADIVQKL	60.2 °C
SLLTSPPKA	50.6 °C
AIVGAVRLLSV	58.3 °C
VLLGEVNIRL	55.2 °C
ALFPHLLQPVL	62 °C
ALAEMPDSAAA	52.6 °C
KLIDYIYTA	63 °C
FAPPQPVAA	54.7 °C
FLETNVPLL	49.9 °C
FLLEQEKTQAL	59 °C
FLSSVIQNL	58.3 °C
SLIRNLEQL	51.2 °C
ILAELPEDFKA	63.2 °C
KILEDVVGV	61.3 °C
AMWEHPITA	61.4 °C
TLTSKLYSL	55.2 °C

Sequence	thermal melting temperature
LLIENVASL	56.8 °C
VTTDIQVKV	47.3 °C
YLHDQNPDAAL	59 °C
QMISRIEYV	59.7 °C
SILEHQIQV	56.9 °C
YLVEGRFSV	63.5 °C
ALPPVLTTV	60.4 °C
ALLQQVHSA	58.2 °C
KVLGALLFV	58.7 °C
TLDEKIEKV	57.8 °C
FLVTVIHTL	61 °C
LTDQTLIYL	52.6 °C
VLVDRTIYI	61.6 °C
FLDITNPKAV	40.7 °C
YLADIFTKL	62.9 °C
LLDRFLATV	64.2 °C
KQTDLEITV	57.5 °C
YVPETVYRV	53.1 °C
